The list shows a part of the results.
The sequences below were run on PfSIP2 AP2 domain 1 (GST-tagged) (assay: gcPBM binding intensity (ln(normalized median fluorescence intensity)); higher = stronger DNA binding).
How it was run: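 The highest Masliner-normalised natural-log median intensity across replicate spots of either probe orientation is reported as binding intensity. GST-tagged P. falciparum DNA-binding domains expressed in E. coli were applied for 1 h to an Agilent 4 × 180k array of primer-extended double-stranded 36-bp intergenic genomic probes plus negative controls, and bound protein was detected with Alexa488 anti-GST antibody and scanned at 488 nm.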

Sequence | gcPBM binding intensity (ln)
ATAAATAATTATAATTGTACACATATATATATATAC [XGTACX_site3998] | 7.27
TTCCACATTTTACAGACACACACAATTTATATTACG [CACACA_site8572] | 7.31
TGTTTTTATAATATTAGTACATAATATACATAATTC [XGTACX_site2787] | 7.11
AATAAATTAATTTTGGGTACATATATATATATATAT [XGTACX_site3807] | 9.31
GTAAGTTGTGCATTCACACACATATATATATATATA [CACACA_site3303] | 9.85
TTTTGTTTCTATATAAGATGGAAATATAAACTTGTA [CACACA_negctrl_site82] | 6.99
TTAAGATCCTAAAAAACACACAATTGTGAATAATAA [CACACA_site3872] | 6.75
TATATATATATATATACATGCATATATATAATATAT [TGCATGCA_site763] | 9.31
TAAAAAAATTTAACATGTACAAATATTGAAAAGGAC [XGTACX_site7608] | 7.75
ATTAAAAAAGAATATACACACCAAAACTGTTTGTTA [CACACA_site4687] | 6.67
GAAGAATAAATATGCACACATGCATATATTTTTACA [CACACA_site3459] | 9.35
ATATATTTTTACCATACACACATATAACAAATATAT [CACACA_site7706] | 7.41
TTTATTATCTTATTCACACACATATATATATATATA [CACACA_site2869] | 9.64
AGAAAAAAAAAAAAAAAAAAAAAATTGAATATATAT [TGCATGCA_negctrl_site55] | 6.71
TACAATTCGTAATACACACACATATATATATATATT [CACACA_site3751] | 7.19
ATATTCCTACATACAACACACGACGTTCTCATAAGA [CACACA_site231] | 7.3
GGAAAATGAAAAACAAAAAAAAAAAAAAAAAAATGA [TGCATGCA_negctrl_site432] | 6.65
AAAAATAGACAAAAGAGTACAAGAAAAAAAGGGTTC [XGTACX_site7843] | 6.8
ACATCTGTTATTTGTGGTACTAAAAAAATATATAGT [XGTACX_site8322] | 7.08

Sequence | gcPBM binding intensity (ln)
TCTTTTTAGATATATACACACCGTGTCTACCTATAC [CACACA_site7551] | 6.86
TTTTAAAGTTGTGAGCTTCATTTTTATTTATATGTA [CACACA_negctrl_site1505] | 6.76
TTACAATTAATAAAGTGTACTTAACTATTATATATA [XGTACX_site481] | 7
TTGATCTATAATAATACACACTTACATAATTAATTA [CACACA_site6273] | 6.98
ATATATATATATGTCTGTACATAAAAAATAATAAAT [XGTACX_site3122] | 9.01
ATCATATTTATGTTGGTGCATTATGCATGGATTTTA [GTGCAC_site9795] | 9.92
TTTTTAAATATAAACAAAAAAAAAAAATATATCAAT [XGTACX_negctrl_site328] | 6.79
ATTTTTATTTTTATTTGTACTTATATATTCTTAAGC [XGTACX_site4122] | 7.12
AATACCCAAGGACACACACACACATATATATATATA [CACACA_site8345] | 9.07
ATAATATAAATACAAACACACAATTGTGTCCACATT [CACACA_site6920] | 6.99
TTTTTATTTAATAGTTGTACATTGAAAAATATGTAT [XGTACX_site3025] | 7.06
TGATTAAATAAATATATATATTTATATATTATACAG [CACACA_negctrl_site1596] | 7.04
GCTCTATCAAAAAAATGTACACATATTATCATTCAT [XGTACX_site143] | 7.15
CAAATAAATATTAAAAGTACACACAGATACACTAAT [XGTACX_site3749] | 7.03
ATAATTTATTTTAAAAGTACTCAATTTGCTTTTCTC [XGTACX_site5749] | 6.85
ACCCATAAAAATTATGCACACTTAATAAAGCGAAAT [CACACA_site5722] | 7.69
TCCTCATTTTATCATACACACTTGTTTATATGGGTG [CACACA_site4650] | 6.96
TTTACAAAAAATTATACACACACGTACAGATAAATA [CACACA_site4678] | 7.34
TATATTTATTATAATTGTACATAAAATAAACTAAGA [XGTACX_site4318] | 7.16

Sequence | gcPBM binding intensity (ln)
AAATAATTAAACATATGTACATATTATATATATATA [XGTACX_site6774] | 8.97
AATATTTATATTTAGTGTACAGAAATAAAAAAAAAA [XGTACX_site6066] | 7.15
CAAAAAAAAAAAAAAACACACATTAAATTAGAAAGA [CACACA_site7271] | 6.59
ATATACATTTAAATGTGTACATAATAAAATAAAAAA [XGTACX_site8170] | 7.33
GCTAATTTATTTTGCAGTACATATATAATAATATAT [XGTACX_site478] | 6.89
ATGTTTTATAAAAGGCGTACACATATGCTTAAGTAA [XGTACX_site6232] | 7.33
CCTTTATTTTATATGTGTACTAAATTGTATATATAT [XGTACX_site8717] | 7.59
CTGAAGGAAAAAGAAAGTACTTTTTTTTTTTTGAAG [XGTACX_site5973] | 6.8
AAAAAAAAAATATCATGTACAAATATAATAAAATTT [XGTACX_site3896] | 6.69
TATAGCAAAAAATTTACACACATGTTTTTTCTATAC [CACACA_site325] | 6.79
GGCATTTTATGAAGTAGTACCATAAATATTAAAGAT [XGTACX_site5287] | 7.32
AATTAAAATAGTAATACACACTTCATAGGAAATGAT [CACACA_site5045] | 6.87
TATGTATCAAATAAATGTACATATATATATATATAT [XGTACX_site2189] | 9.1
AAATTTTTTATGAACACACAAATACACGCACTCAAA [CACACA_site7286] | 8.57
AATAATAAAATAAAGGCATGCACAATATGCTATAAA [TGCATGCA_site645] | 7.49
TAAAATATATAAAACTGTACATTTTAAAGGCACAAC [XGTACX_site8342] | 7.55
TAAAATTAATTTCTGTTGCACTTATTATTAATTAAC | 7.92
TTTTTTTTTTTTTGCACACACCATATTTATAGAAAT [CACACA_site5772] | 7.71
ATATTATACCCGTGTACACATTATAACCATATATAA [CACACA_site5933] | 7.73
